# Laboratory results as given in the supplement of paper PMC3334620.
# The full ranking holds about 33,000 sequences; the median of “E-score (-0.5 to 0.5)” is about -0.012, and the highest 2% start at about 0.27. The list shows a part of the results.
# Biological target: T1, Vhr1 (UniProt P40522)
# T1 sequence: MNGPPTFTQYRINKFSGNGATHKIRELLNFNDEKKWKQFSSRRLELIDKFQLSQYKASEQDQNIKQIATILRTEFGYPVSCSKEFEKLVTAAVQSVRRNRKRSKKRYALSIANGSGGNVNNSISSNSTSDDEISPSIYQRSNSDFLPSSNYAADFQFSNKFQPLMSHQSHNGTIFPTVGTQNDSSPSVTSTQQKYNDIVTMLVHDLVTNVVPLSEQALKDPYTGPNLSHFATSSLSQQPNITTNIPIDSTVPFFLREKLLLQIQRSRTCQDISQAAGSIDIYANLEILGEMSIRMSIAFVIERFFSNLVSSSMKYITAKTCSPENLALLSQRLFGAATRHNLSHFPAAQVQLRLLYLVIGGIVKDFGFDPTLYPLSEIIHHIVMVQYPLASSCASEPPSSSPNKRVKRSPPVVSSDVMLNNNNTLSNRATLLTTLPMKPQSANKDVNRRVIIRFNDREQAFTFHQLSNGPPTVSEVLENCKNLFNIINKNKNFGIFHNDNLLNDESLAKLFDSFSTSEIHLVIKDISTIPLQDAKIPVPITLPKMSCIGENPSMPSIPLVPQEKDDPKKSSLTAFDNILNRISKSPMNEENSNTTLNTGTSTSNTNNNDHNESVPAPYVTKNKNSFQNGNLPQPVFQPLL
# Assay: PBM E-score (8-mer binding enrichment) (E-score (-0.5 to 0.5)); higher = stronger / more preferred TF binding; most listed sequences are background and not binding sites
# Settings: protein concentration: 200 nM; construct: GST-full length
# In short: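 Bound GST-tagged yeast transcription factors, applied at about 100-200 nM to double-stranded universal all-10-mer Agilent arrays, were detected with fluorescent anti-GST. Scans were normalised with masliner. A modified Wilcoxon-Mann-Whitney statistic, the E-score, was assigned to each ungapped eight-base word pooled with its reverse complement by the Universal PBM Analysis Suite.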
row,Sequence,PBM E-score
1,GAATACAC,0.127
2,CATGGGCA,0.177
3,GTGCAGCA,0.0483
4,AATTCACG,-0.0883
5,CCCGTGGC,-0.00381
6,GCCACCTA,-0.0979
7,AATCCAAA,-0.136
8,ACATTACC,-0.105
9,ACGTAGCC,-0.295
10,ATTTAAGA,-0.236
11,GGGCTTAC,-0.00595
12,AAGGTGTG,0.124
13,CCCCTCAA,-0.183
14,GTACCCCA,0.129
15,CTACGTCC,-0.204
16,ACAGGGCT,-0.0894
17,CCGGGGAC,-0.0397
18,GTCTATCA,0.104
19,ACAGGAAA,0.018
20,ACCTCGAA,-0.0863
21,ACATGATA,0.178
22,ATTAGCCA,0.194
23,AACTAACA,0.129
24,AATATCCG,0.0216
25,GTCAGTAA,-0.0359

row,Sequence,PBM E-score
1,ACCGGAAG,0.0351
2,AGAGCTAT,-0.2
3,CATCCCTA,-0.0594
4,CCTACTGC,-0.197
5,GTCTACAC,0.082
6,CCCTATCA,0.0115
7,ACAATTGT,0.0553
8,ACCTATGA,0.128
9,AGTAACCA,0.0676
10,AACCACTC,0.193
11,CGAGCGAC,0.0407
12,AAGCATCT,-0.0662
13,AACATCCC,-0.0107
14,GGGACGCA,-0.159
15,AAGTAGGG,-0.0126
16,CAACCTAC,0.0933
17,AACTTTTC,-0.173
18,AGGGCCGG,-0.111
19,AACTGGGC,-0.165
20,CGCTCTAG,-0.106
21,CAGGACGA,0.0237
22,AGGTTCCC,-0.142
23,AAACTGCA,-0.166
24,CAGTATTA,0.17
25,ACGAGAAT,0.0416

row,Sequence,PBM E-score
1,AATTGACC,-0.132
2,CGCACTAG,0.0106
3,CTATCCCC,-0.055
4,CTTTCCAA,-0.0715
5,AAGCACAT,0.0653
6,AACTCGGA,0.0616
7,AGACGTCA,0.00677
8,AAGTTTGA,-0.11
9,CACGAGCC,0.0419
10,ACGTCCGA,-0.111
11,AGTCTTAC,0.201
12,AGCTTGCA,-0.207
13,AAGATGTC,-0.134
14,AATCGTGT,0.0868
15,CGGCAGCC,0.282
16,AATCTTAC,0.156
17,AGTCCATA,0.0368
18,GATCCGAC,-0.0599
19,ACTCGGCT,0.0351
20,CATGGTGG,0.0917
21,CGTATTCC,-0.0165
22,GCAGACCC,-0.126
23,AATCCCGG,0.0437
24,GGCAGCAA,-0.113
25,ATGCGACA,0.0864

row,Sequence,PBM E-score
1,ACACCCTC,0.116
2,GGCCGGCC,0.0167
3,GCGAACGA,0.0882
4,CTTCTGCA,-0.194
5,CTCCAGGC,-0.149
6,CTTGCGGC,-0.0654
7,AACGCACG,0.178
8,GAATCTGA,-0.12
9,TCACACAA,0.123
10,ACAATTTA,0.0136
11,AGATACCA,0.229
12,AGCGGAAA,-0.134
13,ACTCTCAT,0.027
14,CCATGTAA,0.098
15,GGCTGTCA,-0.267
16,ACAGGGAG,0.012
17,CCGAACTC,-0.0227
18,AGTGCAGG,0.0364
19,TCAGGCCA,0.0201
20,AGTGTTAG,0.191
21,AGTCATTG,0.389
22,CCACGGCA,-0.0546
23,TAAGGCAA,-0.179
24,ATACCTTA,-0.154
25,ACCCGACG,-0.038

row,Sequence,PBM E-score
1,CATAGGAG,0.0874
2,ACTAACCA,0.208
3,GCGCCTAA,-0.0189
4,AGAGATTA,0.0577
5,AGGGGGAG,-0.127
6,AGCCGTTG,-0.154
7,ACTGAAGA,-0.0785
8,ATCTGAAT,0.214
9,CCCGGCGC,0.0263
10,CCGTTGCC,-0.206
11,CACCGAAA,0.141
12,CTCACAGC,0.0806
13,ACCAATTG,-0.136
14,ATCTGCGG,0.0146
15,AAATCCTA,-0.112
16,AGAACCGG,-0.00656
17,ACGCCTCC,-0.156
18,ATCCCCAG,-0.169
19,AGCAACCG,0.0071
20,CATCAGGG,-0.0314
21,AACGGGCT,-0.119
22,GGTGATTA,0.285
23,ACCCTCCA,0.0774
24,AATCGGCC,-0.0517
25,CCGATCCA,0.0419

row,Sequence,PBM E-score
1,AAAGTTTC,-0.187
2,GAGTCGCA,0.391
3,CAGGTGAG,0.0612
4,GGCAATGA,0.0747
5,CACGCTGG,0.115
6,CAAGTACA,0.0134
7,CTGACTTC,0.195
8,GGCCCCAC,-0.185
9,AAGGATTA,-0.0995
10,GTACATTA,-0.11
11,AGGTTGAC,0.155
12,AACTTGCG,-0.0563
13,ATCAGACA,0.0842
14,CTAGTTAC,-0.025
15,CCTTCTCC,-0.175
16,CCAACGTC,0.0107
17,CTCAATTA,0.0871
18,CGACACGA,0.233
19,AACGAAGC,-0.0946
20,ACCTGCAT,0.0681
21,CTAATAAG,-0.142
22,ATCCTCAT,0.0301
23,AGGCAGTC,0.125
24,GGTCCGCA,-0.066
25,AAACCTGT,-0.0542

row,Sequence,PBM E-score
1,ACTAGCAT,0.099
2,ACATATTC,0.0778
3,CAGACGGA,-0.0574
4,CGCATACC,0.059
5,AAGGCATG,-0.0217
6,AGGCGTAA,-0.00992
7,GTAGCATA,0.079
8,TTAAAAAA,-0.192
9,ACCCCGTG,0.169
10,CGTAATAC,0.088
11,CCGCTGGA,-0.0416
12,ATTATTCG,-0.0568
13,GTAAGGAA,-0.216
14,CGAGCGAG,0.262
15,GTCAAACA,-0.116
16,CCCATGGC,0.142
17,AATTTGCA,-0.296
18,GCGTAACA,-0.0483
19,AGTTTGTG,-0.0128
20,CTCATGAA,0.0223
21,ATAAACAA,0.115
22,CAGGGGCA,-0.0453
